96 compounds from PubChem BioAssay AID1159614 (National Center for Advancing Translational Sciences (NCATS), 2016) can be followed below.

Structures are written as SMILES. The whole screen tested about 45,000 compounds, of which about 65 (0.1%) were called active. The call rests on the fitted dose curve; in most records, active means well fitted activation curve with a large enough effect; inconclusive means small, poorly fitted or top-dose-only effect; inactive means no such curve, though single readings can be large or run the other way. The list shows a part of the results.

In this assay the target is Galactocerebrosidase (Homo sapiens) (UniProt P54803). As to the kind of experiment: A Novel Cell-Based Assay to Identify Small Molecules for B -Galactocerebrosidase. Further: 0% is about no effect; nearly all actives have a fitted effect of over 65% in size. As to conditions: 145M-Twi-hGALC-G270D cells (Twitcher mouse brain line with human GALC G270D), HMU-beta-Gal fluorescence, 48 h; series mostly up to 57.5 µM; activation: at the top concentration. The essentials: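 Fluorescence readout: HMU-β-gal cleavage by mutant GALC (0.1 mM final, citrate/phosphate pH 5.2 with 1 mg/mL taurocholate), stopped with carbonate/bicarbonate plus Triton X-100. Cells: murine Twitcher 145M-Twi expressing human G270D GALC; qHTS for activators.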
Sequence of UniProt P54803 (P54803 whole entry, looked up): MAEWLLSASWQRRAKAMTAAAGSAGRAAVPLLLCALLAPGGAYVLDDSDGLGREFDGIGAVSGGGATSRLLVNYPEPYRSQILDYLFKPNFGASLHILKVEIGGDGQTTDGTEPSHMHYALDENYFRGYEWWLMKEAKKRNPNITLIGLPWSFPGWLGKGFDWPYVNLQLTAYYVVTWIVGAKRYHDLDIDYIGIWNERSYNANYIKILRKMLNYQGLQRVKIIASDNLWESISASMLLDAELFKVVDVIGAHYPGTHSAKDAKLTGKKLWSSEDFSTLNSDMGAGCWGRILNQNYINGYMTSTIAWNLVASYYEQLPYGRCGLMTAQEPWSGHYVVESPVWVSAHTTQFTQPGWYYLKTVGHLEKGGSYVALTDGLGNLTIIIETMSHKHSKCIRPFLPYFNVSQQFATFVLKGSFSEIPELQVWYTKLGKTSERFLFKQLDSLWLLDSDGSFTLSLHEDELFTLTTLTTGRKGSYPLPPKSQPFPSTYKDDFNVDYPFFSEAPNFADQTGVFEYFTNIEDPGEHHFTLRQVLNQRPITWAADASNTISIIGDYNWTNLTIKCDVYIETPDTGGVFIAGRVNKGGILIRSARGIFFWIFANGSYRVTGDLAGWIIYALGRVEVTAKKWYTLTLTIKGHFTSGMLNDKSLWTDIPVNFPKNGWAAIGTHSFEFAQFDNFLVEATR
For `O=S(=O)(NCCc1nnc2ccc(SCc3c(F)cccc3Cl)nn12)c1ccccc1`, the “activation” value was inactive: -3.67%. Then `CCC(Oc1ccccc1)C(=O)Nc1ccc(OCc2cc(=O)n3ccc(C)cc3n2)cc1` (stereo unspecified), with inactive: -5.89%. The result for `Cc1oc(-c2ccccc2F)nc1CSCC(=O)NCCc1ccccc1` reads inactive: -12.2%; that for `Cc1ccc(NC(=O)CSc2nc3ccc(NC(=O)CCc4ccccc4)cc3s2)c(C)c1`, inactive: -23.2%.

For the compound `CCN(CC)C(=O)C1=CC(c2ccc3c(c2)OCO3)=NS(=O)(=O)N1C`, the “activation” value was inactive: -8.01%. The result for `O=C(CCCCn1c(=O)c2ccccc2n(Cc2ccccc2F)c1=O)NCc1ccccc1Cl` reads inactive: -4.93%; that for `CC(C)CCNC(=O)c1cc(Sc2ccc(F)cc2F)nc2ccccc12`, inactive: -16.4%. Then `COc1ccc(N2C(=O)CS(=O)(=O)C23C(=O)N(Cc2c(F)cccc2Cl)c2ccccc23)cc1` (stereo unspecified), with inactive: -26.7%.

With `COc1ccc(NC(=O)CN(C)S(=O)(=O)c2ccc3nc(C)sc3c2)cc1`, the “activation” value is inactive: -13.1%. The result for `O=C(CN1CCN(CC(=O)Nc2ccccc2F)CC1)Nc1ccc(Cl)c(C(F)(F)F)c1` reads inactive: 0.626%; that for `CCOC(=O)C1=C(C(F)(F)F)Nc2ncnn2C1c1cccc(OC)c1OC` (stereo unspecified), inactive: -13.5%; that for `COc1ccc(NC(=O)C2=C(C)Nc3ncnn3C2c2ccccn2)cc1` (stereo unspecified), inactive: 1.86%. Turning to `CCOC(=O)c1cnc2c(C)cc(C)cc2c1Nc1ccc(OCc2ccccc2)cc1`, the “activation” value is inactive: -27.5%. The result for `CCCCn1cc(S(=O)(=O)c2ccccc2)c(=O)c2cc(F)c(N3CCC(C)CC3)cc21` reads inactive: -10.1%. Then `CCc1ccc(NC(=O)C2CCN(S(=O)(=O)c3c(C)noc3/C=C\c3ccc(OC)cc3)CC2)cc1`, with inactive: -10.3%; and `O=C(NCCc1ccccc1)c1ccc(CSc2nc3ccncc3n2Cc2cccc(F)c2)cc1`, with inactive: -13.3%; and `COc1cc(C(=O)Nc2ccc(OCc3cc(=O)n4cccc(C)c4n3)cc2)cc(OC)c1OC`, with inactive: -31.4%. Regarding `CC1=C(c2ccc(C)c(C)c2)S(=O)(=O)N=C1N1CCC(C(=O)N2CCCCC2)CC1`, the “activation” value was inactive: 1.63%. The result for `CCOc1ccc(CNC(=O)CCc2cn(CC)c3ccccc23)cc1` reads inactive: -4.44%. Consider `CCCOc1ccccc1-c1nc2n[nH]nc2c(=O)[nH]1`, for which the “activation” value was inactive: -11.8%. The result for `COc1ccc(-n2nc(C(=O)NCc3ccc(F)cc3)c3c4ccccc4n(C)c3c2=O)cc1` reads inactive: -8.51%; that for `CN(C)c1ccc(CNC(=O)c2ccc3c(c2)N(C)C(=O)C2CCCCN32)cc1` (stereo unspecified), inactive: -14.8%; that for `O=C(c1cnc(N2CCOCC2)c2ccccc12)N1CCN(c2ccccc2F)CC1`, inactive: -4.8%. On to `CCOc1ccccc1N1CC(c2nc3ccccc3n2CCCCOc2cc(C)ccc2C)CC1=O` (stereo unspecified), for which the “activation” value is inactive: -8.01%. The result for `COc1ccccc1CNc1ccc(-c2nc(-c3cccc(C)c3)no2)cc1[N+](=O)[O-]` reads inactive: -5.51%. Take `CCCCOc1ccc(CN2C(=O)C(=O)c3cc(C)ccc32)cc1OC`: the “activation” value was inactive: -8.38%. Then `CCN(CC)C(=O)c1sc2c(c1C)c(=O)n(CCc1ccccc1)c(=O)n2Cc1cccc(Cl)c1`, with inactive: -11.8%; and `CC(C)NC(=O)C1CCN(C(=O)N2CC(C)Oc3ccccc32)CC1` (stereo unspecified), with inactive: -8.84%.

With `CCOc1ccc2nc(N3CCCC(C(=O)NCc4ccc(C)cc4)C3)sc2c1` (stereo unspecified), the “activation” value is inactive: -7.59%. Then `COc1ccccc1NC(=O)Cn1c(=O)n(Cc2nc(-c3ccccc3)no2)c(=O)c2ccccc21`, with inactive: -13.4%; and `Cc1ccc(C)c(NC(=O)Nc2csc3c2CCCC3)c1`, with inactive: -11.9%; and `CCS(=O)(=O)NCCc1csc2nc(-c3ccc(C)cc3)nn12`, with inactive: -11.7%.

For the compound `COc1ccc(NC(=O)Cn2cc(C(=O)c3cccs3)c3ccccc32)cc1`, the “activation” value is inactive: -9.19%. The result for `O=C(COCc1cc(-c2cccs2)on1)Nc1cccc(O)c1` reads inactive: -21.5%; that for `CCC1=C(c2ccc(C)cc2)S(=O)(=O)N=C1N1CCC(C(=O)N2CCCCC2)CC1`, inactive: -2.35%; that for `COC(=O)c1c(C)sc(-c2c(-c3ccc4c(c3)OCCO4)[nH]c3c2c(=O)[nH]c(=O)n3C)c1O`, inactive: -26.5%. The result for `Cc1cccc(-n2c(-c3ccco3)nc3c(cnn3-c3ccc(F)cc3)c2=O)c1` reads inactive: -21.3%; that for `Cc1ccc(-n2cnc3cc(C(=O)NC4CCCCCC4)ccc32)cc1Cl`, inactive: 3.07%. The result for `Cc1c(CNCCCc2ccccc2)c(C(=O)O)c(C)n1Cc1cccc(Cl)c1` reads inactive: -1.7%; that for `COc1ccc(NC(=O)C2CCN(S(=O)(=O)c3c(C)noc3/C=C/c3ccc(C)cc3)CC2)cc1Cl`, inactive: -10.7%.

Turning to `COc1ccc(-c2nn(C)c3sc(C(=O)N4CCN(c5cccc(Cl)c5)CC4)cc23)cc1OC`, the “activation” value is inactive: -16.4%. Then `CCc1ccc(OCC(=O)Nc2ccc3oc(-c4ccc(OC)cc4)nc3c2)cc1`, with inactive: -16.5%. The result for `CCc1ccc(OCC(=O)Nc2ccc(Cl)c(-c3nc4ncccc4o3)c2)cc1` reads inactive: -15.3%. Then `O=C(COc1ccccc1)Nc1c(Cl)ccc2nsnc12`, with inactive: 0.115%; and `COC(=O)CC1Oc2ccc(Cl)cc2-n2cc(-c3ccc(F)cc3)nc21` (stereo unspecified), with inactive: 0.268%. As to `Cc1ccc(NS(=O)(=O)c2ccc3[nH]c4c(c3c2)CCCCC4)cc1`, the “activation” value is inactive: -41.3%. `COc1ccc(S(=O)(=O)c2cn(C)c3cc(N4CCOCC4)c(F)cc3c2=O)cc1`: the “activation” value is inactive: -16.7%. In the case of `Cc1ccc(OCc2cc(=O)n3cc(C)sc3n2)c(C)c1`, the “activation” value is inactive: -0.839%. With `CCN1CCN(C(=O)c2c(C)nn(-c3ccc(F)cc3)c2-n2cccc2)CC1`, the “activation” value was inactive: -7.74%. The result for `CC(C)(C)NC(=O)CCSc1nc(-c2ccc3c(c2)OCO3)cc(C(F)(F)F)n1` reads inactive: -13.6%; that for `CCOc1ccc(S(=O)(=O)NCC(c2cccs2)S(=O)(=O)c2ccc(C)cc2)cc1` (stereo unspecified), inactive: -12.6%. Then `Cc1ccc(C)c(N(C)S(=O)(=O)c2ccc3[nH]cc(C(=O)NC4CCCC4)c(=O)c3c2)c1`, with inactive: 7.44%; and `CN(C)c1ccc(CNC(=O)c2cccn2-c2nnc(N3CCCCC3)s2)cc1`, with inactive: -6.82%. The result for `CCCCOc1ccc(C(=O)NCCc2csc(-c3ccc(OC)cc3)n2)cc1` reads inactive: -8.9%. Take `CCOC(=O)c1cnc2nc(NCc3ccc(OCC)cc3)[nH]n2c1=O`: the “activation” value was inactive: -15%. The result for `Cc1ccc(C)c(NC(=O)CSc2nc(-c3ccccc3Cl)nc3c2Cc2c(CO)cnc(C)c2O3)c1` reads inactive: -10.6%; that for `Cc1c(C(=O)OCCOc2ccccc2)[nH]c2c1C(=O)CC(c1ccccc1Cl)C2` (stereo unspecified), inactive: -23%; that for `CCOC(=O)c1cccc(NC(=O)c2nn(-c3ccc(OC)cc3)c(=O)c3c2c2ccccc2n3C)c1`, inactive: -10.6%.

Take `CN(Cc1ccccc1)c1ccc(-c2nc(-c3cccnc3)no2)cc1[N+](=O)[O-]`: the “activation” value is inactive: -9.92%. Then `CCN(Cc1ccccc1)S(=O)(=O)c1ccc2[nH]c3c(c2c1)CCCCC3`, with inactive: 1.38%; and `Cc1cc(-c2nc3ncccc3o2)ccc1NC(=O)COc1cc(C)c(Cl)c(C)c1`, with inactive: -3.88%. Then `CCC(C(=O)NCCc1cc(OC)ccc1OC)n1nc(C)c2sc3ccccc3c2c1=O` (stereo unspecified), with inactive: 4.79%.

`O=C(NCc1ccc(F)cc1)C(=O)NCC(c1cccs1)S(=O)(=O)c1cccs1` (stereo unspecified): the “activation” value was inactive: -5.62%. For the compound `CCC(=O)N1c2ccccc2CC1C(=O)NCCc1ccccc1` (stereo unspecified), the “activation” value is inactive: -17.1%.

Regarding `O=C(NCCc1ccccc1Cl)c1sc2ncccc2c1-n1cccc1`, the “activation” value is inactive: -6.2%. Then `O=C(NC1CCN(CCc2c[nH]c3ccccc23)CC1)c1ccccc1`, with inactive: -10.4%; and `CC(C)CCNC(=O)c1cc2cc(S(=O)(=O)N3CCCCC3)ccc2n1C`, with inactive: -10.6%. The result for `Cn1c(=O)oc2cc(S(=O)(=O)N3CCCC(C(=O)NCc4ccc(F)cc4)C3)ccc21` (stereo unspecified) reads inactive: 3.91%; that for `O=C(Nc1ccc(F)c(Cl)c1)N1CC=C(c2c[nH]c3ccccc23)CC1`, inactive: -4.74%; that for `CC1=C(C(N)=O)C(c2ccccc2Br)n2ncnc2N1` (stereo unspecified), inactive: -4.06%.

For `O=C(NCc1ccccc1Br)c1cnc2sc(N3CCCCCC3)nn2c1=O`, the “activation” value was inactive: -5.82%.

Consider `COc1ccc(CNC(=O)CCCN2C(=O)COc3ccc(C)cc32)cc1`, for which the “activation” value was inactive: -7.4%. `Cc1ccc(N2CCN(C(=O)c3cnc(N4CCCCC4)c4ccccc34)CC2)c(C)c1`: the “activation” value was inactive: -42.9%. As to `CCC(=O)Nc1ccccc1-c1nc2ccccc2n(CC(=O)c2ccc(C)cc2)c1=O`, the “activation” value was inactive: -5.89%. The result for `CSc1ncc(Cl)c(C(=O)Nc2c(C(=O)Nc3cccc(Cl)c3)oc3ccccc23)n1` reads inactive: -18.6%; that for `COc1cccc(Cn2nnc3c(=O)[nH]c(C4CCN(C(=O)c5ccccc5Cl)CC4)nc32)c1`, inactive: -27%.

Take `CCOC(=O)c1ccc(NC(=O)CSc2c3c(nc4cc(Cl)ccc24)CCCC3)cc1`: the “activation” value is inactive: -14.5%.

`COc1cc(OC)c(NC(=O)CCCn2nc(C)c3c(C)n(-c4ccccc4)nc3c2=O)cc1Cl`: the “activation” value was inactive: -3.45%. Then `COc1ccc(-n2nc(C(=O)N3CCCC(C)C3)c3c4ccccc4n(C)c3c2=O)cc1Cl` (stereo unspecified), with inactive: -10.8%; and `Cc1ccc(N2CCn3c2nc2c3c(=O)n(CCCc3ccccc3)c(=O)n2C)cc1C`, with inactive: -11.1%. The result for `CCN(CC)c1nc2ccccc2nc1C(=O)Nc1cc(OC)c(OC)c(OC)c1` reads inactive: -4.91%; that for `O=C(NC1CC(=O)N(c2ccccc2)C1)c1ccc(S(=O)(=O)N2CCCCC2)cc1` (stereo unspecified), inactive: -12.4%.

For `Cc1nn(C(=O)c2ccc(Cl)cc2)c(C)c1S(=O)(=O)N1CCCCCC1`, the “activation” value was inactive: -4.85%. Then `Cc1nn2c(C)c(C(=O)NCc3ccco3)cnc2c1-c1ccccc1`, with inactive: -14%; and `COc1ccccc1NC(=O)C1=C(C)Nc2nc(SCc3ccccc3Cl)nn2C1c1ccccn1` (stereo unspecified), with inactive: -10.2%. Then `CN(C)c1ccc(/C=C/c2noc(-c3ccccc3O)n2)cc1`, with inactive: -14.7%; and `Cc1cccc(OCC(=O)N(Cc2ccc(C(C)(C)C)cc2)Cc2ccco2)c1`, with inactive: -14.7%.

Regarding `O=c1[nH]c(=O)n(C2CCCCC2)c(O)c1C1=Nc2ccccc2SC(c2ccccc2)C1` (stereo unspecified), the “activation” value is inactive: -7.15%. The result for `COc1ccc(C2C(C(=O)Nc3cccnc3)=C(C)Nc3nc(-c4ccccc4)nn32)cc1OC` (stereo unspecified) reads inactive: -11.6%. Then `COc1cc(OC)nc(O[C@H](C(=O)O)C(OC)(c2ccccc2)c2ccccc2)n1`, with inactive: -10.1%. Then `COc1ccc(OCC(=O)NCC(c2ccc(OC)cc2)N2CCCCC2)cc1` (stereo unspecified), with inactive: -29.8%; and `CC(C)C(NS(=O)(=O)c1ccc2c(c1)oc(=O)n2C)C(=O)NCCc1ccccc1` (stereo unspecified), with inactive: 0.548%.

For the compound `COCCCNc1nc(NCc2cccc(Cl)c2)c2cnn(C)c2n1`, the “activation” value is inactive: 0.229%. Then `COc1ccc(-c2nc(CSc3nnc(C)n4c3cc3occc34)c(C)o2)cc1OC`, with inactive: -14.7%; and `CCc1ccc(-n2nc(C)c3c(C)cc(=O)n(CC(=O)Nc4ccc(C(C)=O)cc4)c32)cc1`, with inactive: -6.16%; and `COc1cc(OC)c(NC(=O)N2CC3CCCN3c3ccccc32)cc1Cl` (stereo unspecified), with inactive: -2.86%.
